About 2,500 (3.4%) of roughly 73,000 compounds were called active. The inconclusive results got no clear call from the source; some entries with a clear call stand among them for comparison. Calls come from the whole dose curve; as a rule, active = well fitted inhibition curve with a large enough effect; inconclusive = small, poorly fitted or top-dose-only effect; inactive = no such curve, though single readings can be large or run the other way. Potencies beside an inconclusive call are fits to weak or partial responses and may not hold up.
Target: 3-hydroxyacyl-CoA dehydrogenase type-2 (Homo sapiens) (UniProt Q99714)
Test: qHTS Assay for Inhibitors of HADH2 (Hydroxyacyl-Coenzyme A Dehydrogenase, Type II); note: nearly all actives have a fitted effect of over 60% in size
Settings: recombinant HADH2, NADH fluorescence, beta-hydroxybutyryl-CoA; activity change, negative = inhibition: at 57.1 µM (top of the series)
Excerpt: Assay Overview: NIH Molecular Libraries Screening Centers Network [MLSCN] NIH Chemical Genomics Center [NCGC] Structural Genomics Consortium [SGC] Grant Number: None HADH2: Hydroxyacyl-Coenzyme A dehydrogenase, type II, was supplied by researchers at the Structural Genomics Consortium, Oxford University lab (PI Udo Oppermann). The mitochondrial enzyme 17-hydroxysteroid dehydrogenase type 10 (HSD17-10) previously classified as type II hydroxyacyl-CoA dehydrogenase (HADH2) catalyzes the NAD+ dependent oxidation of a variety of substrates including acyl-CoAs, androgens and neurosteroids as well as bile acids(Shafqat N, Marschall HU, Filling C, et al. Biochemical Journal. 2003;376(Pt 1):49-60). The role in neurodegeneration by binding to amyloid-peptide led to its identification (Oppermann UC, et al FEBS Letters. 1999;451(3):238-242 and Yan SD, et al. Nature. 1997;389(6652):689-695), and mutations in its gene appear to be causative for 2-methyl-3-hydroxybutyryl-CoA dehydrogenase deficiency (Ofman R, et al. American Journal of Human Genetics. 2003;72(5):1300-1307). The enzyme was produced by E.coli fermentation as His-tagged recombinant for the purpose of X-ray structure determination, and had been mass-spectrometry characterized. Inhibition of HADH2 activity was screened by utilizing beta-hydroxybutyryl coenzyme A as an electron donor and NAD+ as an electron acceptor/cofactor. An increase in the fluorescence intensity due to conversion of NAD+ to NADH was used to measure the enzyme activity.
Assay Protocol: Buffer: 100 mM Tris-HCl pH 9.0, containing 0.01 % Tween-20. Reagents/Controls: Buffer in columns 3 and 4 as negative control (no enzyme). Substrate/cofactor solution: 1 mM NAD+ and 90 uM beta-hydroxybutyryl coenzyme A (Sigma-Aldrich, St. Louis, MO) final concentrations dispensed throughout the plate. Enzyme: 20 nM HADH2 final concentration in columns 1, 2, 5-48. Column 1 is neutral (100% activity). Column 2 contained titration of apomorphine (Sigma-Aldrich, A 4393, PubChem CID 2215, top concentration 500 uM, then 1:2 dilution in duplicate) Assay Steps: Three uL of enzyme were dispensed to 1536-well Greiner black solid bottom plates. Compounds and controls (23 nL) were transferred via Kalypsys PinTool. The plates were incubated for 15 min at room temperature, and then 1 uL of substrate/cofactor solution was added to start the reaction. The plates were immediately transferred to and read every 30 seconds for 4 min on ViewLux High-throughput CCD imager (Perkin-Elmer) using 360 nm excitation and 450 nm emission fluorescence protocol. The fluorescence intensity difference between the last and the first time points was used to compute reaction progress.
% is set by controls: 0 for no effect and ±100 for the full control effect; potency is the fitted concentration of half-maximal effect; tags give direction and shape of the fitted curve.

Chain of UniProt Q99714 (Q99714 whole entry, looked up): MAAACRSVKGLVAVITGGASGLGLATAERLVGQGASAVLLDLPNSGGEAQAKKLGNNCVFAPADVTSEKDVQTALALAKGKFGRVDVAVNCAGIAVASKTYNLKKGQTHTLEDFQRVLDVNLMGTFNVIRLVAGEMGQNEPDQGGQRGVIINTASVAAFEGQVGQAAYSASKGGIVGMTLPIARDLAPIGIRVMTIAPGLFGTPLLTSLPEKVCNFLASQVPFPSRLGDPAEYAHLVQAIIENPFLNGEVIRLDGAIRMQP
Chain of UniProt Q99714 (Q99714 whole entry, looked up): as above

SMILES	Potency	activity change, negative = inhibition
COc1ccc(NC(=O)CCn2cccc2)cc1	inactive	–
Cc1ccc(Cn2ccc(NC(=O)c3cc(-c4cccs4)on3)n2)cc1	inconclusive: 31.6 µM [inhibitor, single point]	–
O=C(CCN1CCCCC1)c1csc2ccccc12	inconclusive: 1.26 µM [inhibitor, full curve]	–
O=c1[nH]c(NCCCO)nc2c1C1(CCCC1)Cc1ccccc1-2	inconclusive: 31.6 µM [inhibitor, single point]	–
COc1cccc(CNc2nc3nc(C)cc(C)n3n2)c1	inconclusive: 31.6 µM [inhibitor, single point]	–
N#CC1=C(N)N(c2ccccc2C#N)C2=C(C(=O)CCC2)C1c1ccsc1 (stereo not given)	inactive	–
O=C(c1ccc2c(=O)n(-c3ccccc3)c(=O)[nH]c2c1)N1CCCCC1	inconclusive: 31.6 µM [inhibitor, single point]	–
COc1ccc(C2C=C(c3ccccc3)Nc3nc(CCCO)nn32)cc1 (stereo not given)	inconclusive: 39.8 µM [inhibitor, single point]	–
CCN(C(=O)c1coc(=O)c(Br)c1)c1ccc2c(c1)OCO2	active: 25.1 µM	–
Cc1ccccc1CSc1nc2n(n1)C(c1cccs1)C1=C(CCCC1=O)N2 (stereo not given)	active: 25.1 µM	–
O=S(=O)(Nc1ccc2nc(-c3ccco3)[nH]c2c1)c1ccccc1	inconclusive: 39.8 µM [inhibitor, single point]	–
Cc1csc(NC(=O)CCc2nc3ccccc3s2)n1	inconclusive: 15.8 µM [inhibitor, partial curve]	–
CCn1c(SCC(=O)c2cc(OC)ccc2OC)nc2c1c(=O)n(C)c(=O)n2C	inactive	–
COc1ccc2[nH]c(=O)c(CNC3CCCCC3)cc2c1	inconclusive: 39.8 µM [inhibitor, single point]	–
COc1ccc(C(=O)CCC(=O)O)cc1	inactive	–
CCc1c2c(nc3cccc(OC)c13)OC(CC)C2 (stereo not given)	inconclusive: 20 µM [inhibitor, single point]	–
N#Cc1nc(-c2cccs2)oc1N1CCOCC1	active: 3.16 µM	–
COc1cc(C2/C(=C(\O)c3ccc4c(c3)CC(C)O4)C(=O)C(=O)N2CCCn2ccnc2)ccc1O (stereo not given)	inactive	–
CCN(CCCNC(=O)CN(C)S(=O)(=O)c1ccc2c(c1)CCC(=O)N2)c1cccc(C)c1	inactive	–
Cc1cccc(OCCCCc2c(C)n[nH]c2C)c1	inconclusive: 12.6 µM [inhibitor, partial curve]	–
Nc1cc(S(=O)(=O)O)ccc1O	inconclusive: 2.51 µM [inhibitor, full curve, poor fit]	–
Cc1ccc(C)c2[nH]c(=O)c(CN(Cc3nnnn3C3CCCCC3)CC3CCCO3)cc12 (stereo not given)	inactive	–
CCCCN(CCCNc1ncnc2nc[nH]c12)c1ccccc1	inconclusive: 25.1 µM [inhibitor, partial curve]	–
COc1ccc(CNc2ccc3c(c2)nc(C)n3C)cc1	inconclusive: 15.8 µM [inhibitor, partial curve]	–
COc1ccc(Nc2nc(C)cc(C)c2C#N)cc1	inconclusive: 31.6 µM [inhibitor, single point]	–

SMILES	Potency	activity change, negative = inhibition
COC(=O)c1c(NC(=O)c2cccs2)sc2c1CCCC2	inconclusive: 39.8 µM [inhibitor, single point]	–
C=C1c2cccc(O)c2C(O)=C2C(=O)[C@@]3(O)C(O)=C(C(N)=O)C(=O)[C@@H](N(C)C)[C@@H]3[C@@H](O)[C@H]12	active: 2 µM	–
Cc1cc(NC(=O)c2cccc(C(=O)Nc3cc(C)on3)n2)no1	inactive	–
CC(C)c1ccc2oc(-c3ccc(NC(=O)c4ncn[nH]4)cc3)nc2c1	active: 25.1 µM	–
COC(=O)c1cc2c([nH]c3ccccc32)c(C)n1	inconclusive: 39.8 µM [inhibitor, single point]	–
CCOC(=O)CSc1cn2c(n1)CCC2	inconclusive: 39.8 µM [inhibitor, single point]	–
COCCN(CC(=O)Nc1cccc(C)c1)S(=O)(=O)c1ccc(S(=O)(=O)N2CCCC2)cc1	inconclusive: 5.01 µM [inhibitor, single point]	–
N#Cc1ccccc1NC(=O)Nc1cccc(Cl)c1	inconclusive: 31.6 µM [inhibitor, single point]	–
COc1cc2c(cc1O)CC[C@@H]1[C@@H]2CC[C@@]2(C)[C@H](O)CC[C@H]12	inconclusive: 31.6 µM [inhibitor, single point]	–
O=c1c(-c2ccccc2)coc2c(CN3CCOCC3)c(O)ccc12	inactive	–
CC1CCCN(CCCNC(=O)c2coc3nc4ccccc4nc23)C1 (stereo not given)	active: 3.16 µM	–
COC(=O)c1cc(S(=O)(=O)N2CCC(C)CC2)ccc1F	inconclusive: 0.501 µM [inhibitor, partial curve]	–
Cc1sc(NC(=O)COc2cccc(-n3cnnn3)c2)c(C#N)c1C	inconclusive: 1 µM [inhibitor, single point]	–
O=C(O)CCSc1nnc(-c2ccc3c(c2)OCO3)o1	inconclusive: 0.126 µM [inhibitor, single point]	–
NC1=NC2(CCCCC2)n2c(nc3ccccc32)N1	inactive	–
C#CCOC(=O)c1ccccc1C(=O)n1nnc2ccccc21	inconclusive: 20 µM [inhibitor, partial curve]	–
CC1=CC(=C2C(=O)c3ccccc3C2=O)C=C(C)N1C	inactive	–
COc1cccc(-c2ccc3ncnc(NCc4ccccc4)c3c2)c1	inconclusive: 39.8 µM [inhibitor, single point]	–
CCOc1c(C)cc(-c2ncccc2O)cc1C	active: 25.1 µM	–
CCOC(=O)C1CCN(C(=O)CSc2ccccc2)CC1	inconclusive: 39.8 µM [inhibitor, single point]	–
COCCNc1nc(C)nc2c1nc(-c1ccccc1)n2CCN1CCCCC1	inconclusive: 31.6 µM [inhibitor, single point]	–
Cc1cc(NS(=O)(=O)c2ccc(NC(=O)C(C)Oc3ccc4c(C)cc(=O)oc4c3)cc2)no1 (stereo not given)	inconclusive: 25.1 µM [inhibitor, single point]	–
Cc1oc2c(c1C(=O)NCc1cc(C(=O)O)co1)CCCC2	inconclusive: 0.01 µM [inhibitor, full curve]	–
O=C(CCCN1C(=O)CCC1=O)Nc1ccc2c(c1)OCO2	inconclusive: 39.8 µM [inhibitor, single point]	–
O=c1c(-c2cc(F)cc(F)c2)nc2cnc(N3CCOCC3)nc2n1Cc1ccc(F)cc1	inactive	–

SMILES	Potency	activity change, negative = inhibition
COc1ccc2c(C)cc(=O)oc2c1C	active: 25.1 µM	–
COC(=O)c1ccccc1NC(=O)c1cc2ncc(Br)cn2n1	inactive	–
CCN1C(=O)/C(=C2/C=CC=CN2C)OC1=S	inconclusive: 1 µM [inhibitor, single point]	–
CCN(CC)C(=O)CSc1nc(C)cc(-c2cccs2)c1C#N	inconclusive: 2.51 µM [inhibitor, full curve, poor fit]	–
O=C(O)CCCn1c(=O)[nH]c2ccccc2c1=O	inconclusive: 39.8 µM [inhibitor, single point]	–
CN(C)c1ccnc(-c2cccc(NS(C)(=O)=O)c2)n1	inactive	–
COC(=O)C1=C(C)N=c2s/c(=C3\C(=O)Nc4ccccc43)c(=O)n2C1c1ccccc1 (stereo not given)	inactive	–
CN(CCc1ccccn1)S(=O)(=O)c1ccc2c3c(cccc13)C(=O)N2	active: 31.6 µM	–
COc1cc(Cl)cc(C2NC(=O)NC(C)=C2C(=O)NCc2ccccc2)c1O (stereo not given)	inconclusive: 3.98 µM [inhibitor, single point]	–
COC(=O)c1ccccc1N=C(SC)N(C)C	inconclusive: 5.01 µM [inhibitor, full curve]	–
O=C(O)C1Nc2c(C(=O)N3CCOCC3)cccc2C2C=CCC12 (stereo not given)	inconclusive: 1.58 µM [inhibitor, full curve]	–
O=C(COc1ccccc1)n1nc(-c2ccc(Cl)cc2)nc1NCc1ccco1	inactive	–
CSC1=N/C(=C\c2ccc(C)o2)C(=O)S1	inconclusive: 25.1 µM [inhibitor, single point]	–
CCN(CC)CCCNc1oc(-c2ccc(OC)c(OC)c2)nc1C#N	active: 20 µM	–
O=C1CS/C(=N\C(=O)N2c3ccccc3Sc3ccccc32)N1	inconclusive: 6.31 µM [inhibitor, single point]	–
CCOC(=O)CC(=O)CSc1nc2sc(C)cc2c(=O)n1Cc1ccco1	inconclusive: 25.1 µM [inhibitor, partial curve]	–
CS(=O)(=O)N(CC(=O)NCc1ccccn1)c1ccc2c(c1)OCCO2	inactive	–
Cn1c(-c2ccc3c(c2)OCO3)cnc1NCc1cccc(Cl)c1	inconclusive: 39.8 µM [inhibitor, single point]	–
COc1ccc2[nH]cc(CCNc3cc(-c4ccccc4Cl)ncn3)c2c1	inconclusive: 12.6 µM [inhibitor, partial curve]	–
CCOC(=O)c1c(NC(=O)c2ccoc2C)sc2c1CCC2	active: 31.6 µM	–
O=C(O)c1ccccc1S(=O)(=O)NCC(O)COc1ccc(Br)cc1 (stereo not given)	–	inactive: 8.68% [at 11.4 µM]
O=C(Cn1c(-c2ccco2)nc2ccccc21)N1CCCCC1	inconclusive: 39.8 µM [inhibitor, single point]	–
Cc1nc2c(C(=O)N3CCN(c4ccccn4)CC3)cnn2c(C)c1Cc1cccc(Cl)c1	inconclusive: 0.316 µM [inhibitor, full curve, poor fit]	–
FC(F)(F)c1cc(-c2ccccc2)nc(N2CCCCCC2)n1	inactive	–
O=C(c1ccco1)N1CCN(CC(O)Cn2c3ccccc3c3ccccc32)CC1 (stereo not given)	inactive	–

— PubChem BioAssay AID886 (National Center for Advancing Translational Sciences (NCATS), 2007)
